Some of the results follow. Antibody binding of pooled human sera (four to six donors per pool; dilution not stated) to peptides of the Trypanosoma cruzi antigen TSSA on microarrays. Quantile-normalised fluorescence in arbitrary units, mean of duplicate arrays; higher = more binding. No active / inactive call. The uninfected pools are read here as the healthy donors of the same country. The strongest signals lie near the top of the scale (about 60,000).
test system: pooled sera of chronic Chagas disease patients, Argentina; assay: antibody binding signal (normalised fluorescence) (arbitrary fluorescence units); higher = stronger serum antibody binding to peptide
Protocol: (§1)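 Microarray of 15-residue peptides over residues 30-55 of Trypanosoma cruzi TSSAII, each with 1 to 10 substitutions at naturally variable positions, probed with one serum pool per country.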

Sequence | antibody binding signal
KKTAAGETPSQPGAS | 237
GTEKKAAAGETPSQS | 1190
KENKTATGETPSPPG | 535
EKKTATGGTPSQSGA | 718
TDNKTATGGAPSPSG | 575
PSGTENKTAAGGAPS | 50200
GKDKKTAAGEAPSQS | 539
TPPSGTEKKTAAGEA | 33100
TISTPPSGKENKTAA | 17000
SSTPPSGKEKKPAAG | 21200
TENKAAAGGTPSPSG | 35400
TENKAAAGETPSPSG | 35800
KENKPATGGAPSQPG | 503
KENKPAAGETPSQSG | 260
SSTPPSGKEKKTATG | 10000
GTDKKTATGGTPSPS | 495
PSGTEKKPATGGTPS | 22000
TEKKAATGETPSQPG | 5990
TENKPAAGEAPSPSG | 50600
EKKAATGEAPSQPGA | 26400

Sequence | antibody binding signal
GTENKAATGETPSQP | 41300
GTEKKPATGEAPSPP | 41900
PPSGTEKKTAAGEAP | 22800
GTENKPATGETPSPP | 42300
SSTPPSGKEKKAAAG | 13200
GKENKTATGGAPSQP | 2190
EKKTAAGGAPSQSGA | 318
KPATGGTPSQSGASS | 508
GKDNKAAAGEAPSPS | 963
TSSTPPSGKEKKPAA | 18800
TSSTPPSGKDKKAAA | 29300
NKAATGETPSQPGAS | 6220
SGKDNKPAAGEAPSQ | 2280
TDKKPAAGETPSPSG | 377
PSGTENKAATGGAPS | 48100
EKKPATGGTPSPPGA | 918
DNKPATGETPSPSGA | 36700
SGKDNKPAAGGTPSP | 643
KKPATGETPSPSGAS | 9140

test system: pooled sera of chronic Chagas disease patients, Bolivia; assay: as above
Protocol: as §1

Sequence | antibody binding signal
KKTAAGETPSQPGAS | 573
GTEKKAAAGETPSQS | 432
KENKTATGETPSPPG | 585
EKKTATGGTPSQSGA | 533
TDNKTATGGAPSPSG | 553
PSGTENKTAAGGAPS | 23000
GKDKKTAAGEAPSQS | 1580
TPPSGTEKKTAAGEA | 16600
TISTPPSGKENKTAA | 3140
SSTPPSGKEKKPAAG | 1220
TENKAAAGGTPSPSG | 262
TENKAAAGETPSPSG | 363
KENKPATGGAPSQPG | 1050
KENKPAAGETPSQSG | 585
SSTPPSGKEKKTATG | 220
GTDKKTATGGTPSPS | 450
PSGTEKKPATGGTPS | 2660
TEKKAATGETPSQPG | 3640
TENKPAAGEAPSPSG | 4260
EKKAATGEAPSQPGA | 12900

Sequence | antibody binding signal
GTENKAATGETPSQP | 10600
GTEKKPATGEAPSPP | 40800
PPSGTEKKTAAGEAP | 10400
GTENKPATGETPSPP | 32700
SSTPPSGKEKKAAAG | 220
GKENKTATGGAPSQP | 346
EKKTAAGGAPSQSGA | 819
KPATGGTPSQSGASS | 252
GKDNKAAAGEAPSPS | 248
TSSTPPSGKEKKPAA | 349
TSSTPPSGKDKKAAA | 680
NKAATGETPSQPGAS | 11800
SGKDNKPAAGEAPSQ | 15800
TDKKPAAGETPSPSG | 195
PSGTENKAATGGAPS | 21800
EKKPATGGTPSPPGA | 359
DNKPATGETPSPSGA | 31600
SGKDNKPAAGGTPSP | 339
KKPATGETPSPSGAS | 3400

test system: pooled sera of chronic Chagas disease patients, Brazil; assay: as above
Protocol: as §1

Sequence | antibody binding signal
KKTAAGETPSQPGAS | 19400
GTEKKAAAGETPSQS | 2250
KENKTATGETPSPPG | 3290
EKKTATGGTPSQSGA | 679
TDNKTATGGAPSPSG | 662
PSGTENKTAAGGAPS | 44300
GKDKKTAAGEAPSQS | 460
TPPSGTEKKTAAGEA | 27100
TISTPPSGKENKTAA | 9180
SSTPPSGKEKKPAAG | 4280
TENKAAAGGTPSPSG | 235
TENKAAAGETPSPSG | 6900
KENKPATGGAPSQPG | 24500
KENKPAAGETPSQSG | 21600
SSTPPSGKEKKTATG | 277
GTDKKTATGGTPSPS | 635
PSGTEKKPATGGTPS | 19700
TEKKAATGETPSQPG | 38700
TENKPAAGEAPSPSG | 28000
EKKAATGEAPSQPGA | 44000

Sequence | antibody binding signal
GTENKAATGETPSQP | 43100
GTEKKPATGEAPSPP | 47100
PPSGTEKKTAAGEAP | 16600
GTENKPATGETPSPP | 36200
SSTPPSGKEKKAAAG | 355
GKENKTATGGAPSQP | 7190
EKKTAAGGAPSQSGA | 280
KPATGGTPSQSGASS | 370
GKDNKAAAGEAPSPS | 5560
TSSTPPSGKEKKPAA | 458
TSSTPPSGKDKKAAA | 1350
NKAATGETPSQPGAS | 43300
SGKDNKPAAGEAPSQ | 31200
TDKKPAAGETPSPSG | 4000
PSGTENKAATGGAPS | 43400
EKKPATGGTPSPPGA | 497
DNKPATGETPSPSGA | 35300
SGKDNKPAAGGTPSP | 4750
KKPATGETPSPSGAS | 19100

test system: pooled sera of chronic Chagas disease patients, Colombia; assay: as above
Protocol: as §1

Sequence | antibody binding signal
KKTAAGETPSQPGAS | 250
GTEKKAAAGETPSQS | 844
KENKTATGETPSPPG | 551
EKKTATGGTPSQSGA | 4070
TDNKTATGGAPSPSG | 580
PSGTENKTAAGGAPS | 9040
GKDKKTAAGEAPSQS | 1050
TPPSGTEKKTAAGEA | 471
TISTPPSGKENKTAA | 1380
SSTPPSGKEKKPAAG | 481
TENKAAAGGTPSPSG | 3340
TENKAAAGETPSPSG | 272
KENKPATGGAPSQPG | 275
KENKPAAGETPSQSG | 362
SSTPPSGKEKKTATG | 422
GTDKKTATGGTPSPS | 5110
PSGTEKKPATGGTPS | 5270
TEKKAATGETPSQPG | 401
TENKPAAGEAPSPSG | 311
EKKAATGEAPSQPGA | 362

Sequence | antibody binding signal
GTENKAATGETPSQP | 1260
GTEKKPATGEAPSPP | 1150
PPSGTEKKTAAGEAP | 891
GTENKPATGETPSPP | 1220
SSTPPSGKEKKAAAG | 676
GKENKTATGGAPSQP | 4540
EKKTAAGGAPSQSGA | 5930
KPATGGTPSQSGASS | 301
GKDNKAAAGEAPSPS | 1730
TSSTPPSGKEKKPAA | 236
TSSTPPSGKDKKAAA | 454
NKAATGETPSQPGAS | 304
SGKDNKPAAGEAPSQ | 1270
TDKKPAAGETPSPSG | 275
PSGTENKAATGGAPS | 3550
EKKPATGGTPSPPGA | 2460
DNKPATGETPSPSGA | 265
SGKDNKPAAGGTPSP | 1750
KKPATGETPSPSGAS | 176

— the supplement of paper PMC10441789
